Laboratory results reported in PubChem BioAssay AID463173 (ICCB-Longwood Screening Facility, Harvard Medical School, 2010).
Hit rate of the full screen: of about 52,000 compounds, about 1,700 (3.3%) were called active. No stated cut-off is given here; in the data, active means survival mostly below about 52% (no sharp cut-off); inactive means mostly above about 56%. This is one part of the list.

System: Wild type
Test: growth inhibition of S. aureus wild type versus tarO mutant, primary screen, teichoic acid synthesis inhibitors, RN4220, OD600 (AID 463173)
Conditions: S. aureus RN4220 wild type/DeltatarO growth, OD600, 18 h, stronger effect = lower value, screened at 18.75 µg/mL (by protocol)

Row | Structure (SMILES) | survival
1 | O=C(NCCc1ccccc1)c1ccc(Cn2c(SCc3ccccc3)nc3cccnc32)cc1 | inactive: 121%
2 | CCC(Sc1nnc(-c2ccc(OC)c(OC)c2)c(-c2ccc(OC)c(OC)c2)n1)C(=O)NC1CCCC1 (stereo not given) | inactive: 128%
3 | CCCOc1ccc(Oc2nc(NCC(C)C)nc(N(C)C)n2)nn1 | inactive: 94%
4 | CCc1ccc(NC(=O)C(Cc2ccccc2)NS(=O)(=O)c2ccc3c(c2)c(=O)n(C)c(=O)n3C)cc1 (stereo not given) | inactive: 61%
5 | Oc1ccc(Br)cc1C=Nc1cccc(-c2nc3ccccc3o2)c1 | inactive: 111%
6 | CCOc1ccc2nc(NCCNC(=O)NCc3ccccc3)c(C#N)cc2c1 | inactive: 107%
7 | Cc1nc(-n2nc(C)c(CCC(C)C)c2C)sc1C(=O)Nc1cccc(Cl)c1 | inactive: 146%
8 | Clc1ccc(NCc2nc3ccccc3n2CCOc2ccccc2)cc1 | inactive: 74%
9 | COc1ccc(Cl)cc1NC(=O)Cn1c(=O)c2ccccc2n2nncc12 | inactive: 68%
10 | CC1(C)Cc2ccccc2C(N/N=C/c2ccncc2)=N1 | inactive: 99%
11 | CCC(C(=O)Nc1ccc(C)c(Cl)c1)n1c(=O)c(-c2ccccc2NC(C)=O)nc2ccccc21 (stereo not given) | inactive: 54%
12 | Cc1cccc(C)c1NC(=O)c1sc(-n2nc(C)c(Cc3ccc4c(c3)OCO4)c2C)nc1C | inactive: 124%
13 | COc1cc(CNCCSc2nnnn2C)ccc1OCc1ccc(Cl)cc1Cl | active: 0%
14 | Cc1ccc(NC(=O)Cn2nc3c(cc2=O)CCCC3)cc1Cl | inactive: 74%
15 | CCN(C(=O)CSc1nc2ccccc2nc1Cc1ccc(F)cc1)c1cccc(C)c1 | inactive: 88%
16 | COc1ccc2nc(SC)nc(C)c2c1 | inactive: 107%
17 | COc1ccc(NC(=O)C2CCC(CNS(=O)(=O)c3ccc(Br)s3)CC2)c(OC)c1 (stereo not given) | inactive: 83%
18 | CC(C)CC(C(=O)NCC1CCN(Cc2ccc(F)cc2)CC1)N1Cc2ccccc2C1=O (stereo not given) | inactive: 78%
19 | CCc1ccc(NC(=O)Cn2cc(S(=O)(=O)c3ccc(F)cc3)c(=O)c3cc(OC)ccc32)cc1 | inactive: 81%
20 | CC(=O)c1ccc(NC(=O)CCc2c(C)nn(-c3ccc4nnc(C)n4n3)c2C)cc1 | inactive: 71%
21 | O=C(O)CCN1CCCC1 | inactive: 113%
22 | COc1cc(NC(=O)N2CCC(CN3CCCCCC3)CC2)cc(OC)c1OC | inactive: 63%
23 | CCOC(=O)C1(Cc2ccc(O)cc2)NC(c2ccco2)C2C(=O)N(c3ccccc3F)C(=O)C21 (stereo not given) | inactive: 120%
24 | CCc1nc(-c2ccc(C)c(S(=O)(=O)N3CCN(c4ccc(C(C)=O)cc4)CC3)c2)no1 | inactive: 73%
25 | O=C(c1ccc2c(c1)OCCO2)C1CCCCC1 | inactive: 101%
